Screen size: about 310,000 compounds; about 14,000 (4.5%) showed an effect of 50% or more. Effects have a minus sign here. The list shows a part of the results.
What follows are molecules tested against human ether-à-go-go-related gene (hERG) potassium channel (human, UniProt Q12809) (assay: primary screen, population patch clamp on CHO cells stably expressing hERG).
Sequence of human ether-à-go-go-related gene (hERG) potassium channel (Q12809 whole entry, looked up): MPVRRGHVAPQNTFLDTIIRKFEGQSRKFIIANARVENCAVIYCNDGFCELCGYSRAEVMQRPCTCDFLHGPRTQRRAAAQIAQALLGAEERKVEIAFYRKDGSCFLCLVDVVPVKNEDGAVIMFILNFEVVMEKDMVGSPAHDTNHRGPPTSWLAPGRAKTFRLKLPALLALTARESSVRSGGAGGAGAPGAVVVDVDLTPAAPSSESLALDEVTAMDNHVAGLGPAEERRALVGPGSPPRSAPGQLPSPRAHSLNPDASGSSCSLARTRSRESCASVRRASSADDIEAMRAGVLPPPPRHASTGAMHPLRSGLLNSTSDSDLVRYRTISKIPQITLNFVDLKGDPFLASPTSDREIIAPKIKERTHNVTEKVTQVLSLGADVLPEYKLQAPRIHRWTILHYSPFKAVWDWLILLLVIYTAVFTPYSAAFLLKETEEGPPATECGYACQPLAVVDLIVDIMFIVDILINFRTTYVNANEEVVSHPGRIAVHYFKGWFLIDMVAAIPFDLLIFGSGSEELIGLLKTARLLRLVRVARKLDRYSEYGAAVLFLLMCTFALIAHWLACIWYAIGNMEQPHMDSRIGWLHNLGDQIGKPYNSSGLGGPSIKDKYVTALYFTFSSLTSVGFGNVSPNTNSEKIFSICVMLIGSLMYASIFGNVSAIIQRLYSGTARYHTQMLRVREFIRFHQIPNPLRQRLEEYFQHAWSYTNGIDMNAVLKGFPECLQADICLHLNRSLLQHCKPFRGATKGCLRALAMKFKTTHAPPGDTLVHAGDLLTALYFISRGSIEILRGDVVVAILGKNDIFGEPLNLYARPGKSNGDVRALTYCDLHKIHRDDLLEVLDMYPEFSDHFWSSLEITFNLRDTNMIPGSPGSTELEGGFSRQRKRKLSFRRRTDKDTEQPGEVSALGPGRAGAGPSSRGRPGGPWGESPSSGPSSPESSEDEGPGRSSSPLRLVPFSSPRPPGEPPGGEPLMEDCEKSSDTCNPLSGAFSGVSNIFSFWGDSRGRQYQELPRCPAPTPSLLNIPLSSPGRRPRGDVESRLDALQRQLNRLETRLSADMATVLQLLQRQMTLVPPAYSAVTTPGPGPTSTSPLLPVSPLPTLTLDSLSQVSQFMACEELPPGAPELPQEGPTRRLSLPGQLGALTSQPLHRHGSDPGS
`CC(C)CCNC(=O)NC(=O)COc1ncnc2sccc12` was tested, and the “hERG current change (%, negative = inhibition) at 10uM” value was -17.4%. `CCOc1ccc(S(=O)(=O)NCc2ccc(F)cc2)c2cccnc12` was tested, and the “hERG current change (%, negative = inhibition) at 10uM” value was -15.1%. `COC(=O)c1cccc(Cn2c(Cl)c(/C=N/Nc3ccccc3C)sc2=O)c1` was tested, and the “hERG current change (%, negative = inhibition) at 10uM” value was 3.98%. `Cc1ccc(OCc2cc(C(=O)NCC(C)c3ccccc3)no2)cc1C` (stereo not shown) was tested, and the “hERG current change (%, negative = inhibition) at 10uM” value was 2.96%. With `O=c1oc(-c2cccnc2)nc2ccccc12` the “hERG current change (%, negative = inhibition) at 10uM” value was 5.21%. For `O=C(Nc1ccc(Cl)cc1)Nc1ccccc1C(=O)O`, the “hERG current change (%, negative = inhibition) at 10uM” value was 14.1%. For `Cc1oc(-c2ccc(Cl)cc2)nc1CN1CCC(C(=O)N2CCN(Cc3ccccc3)CC2)CC1`, the “hERG current change (%, negative = inhibition) at 10uM” value was -69.1%. `CC1CC(C)CN(C(=O)C(Cc2ccccc2)n2cccc2)C1` (stereo not shown) was tested, and the “hERG current change (%, negative = inhibition) at 10uM” value was -1.62%. With `Cc1ccc(C(=O)COC(=O)C(C)N2C(=O)C3C4CCC(C4)C3C2=O)cc1` (stereo not shown) the “hERG current change (%, negative = inhibition) at 10uM” value was 0.779%. `Cc1cccc(NC(=O)CN2C(=O)N/C(=C\c3ccc(-c4cccc(C(=O)O)c4)o3)C2=O)c1` was tested, and the “hERG current change (%, negative = inhibition) at 10uM” value was 19.3%. With `COc1ccc(C(=O)Nc2ccc(S(=O)(=O)Nc3nccc(C)n3)cc2)cc1OC` the “hERG current change (%, negative = inhibition) at 10uM” value was 9.61%. `Cc1cc(/C=N/N2CCN(C)CC2)c(C)n1-c1ccc(Cl)cc1` was tested, and the “hERG current change (%, negative = inhibition) at 10uM” value was -13.5%. `CC(C)=CCN1CCN(Cc2cccn2-c2ccccn2)CC1CCO` (stereo not shown) was tested, and the “hERG current change (%, negative = inhibition) at 10uM” value was -55.4%. `COc1ccc(/C(N)=N/O)cc1O` was tested, and the “hERG current change (%, negative = inhibition) at 10uM” value was 5.51%. For `Cl.Oc1ccc(Cl)cc1CNCc1ccc(C(F)(F)F)cc1`, the “hERG current change (%, negative = inhibition) at 10uM” value was -28%. For `O=C(/C=C/c1ccncc1)c1ccc2c(c1)OCCO2`, the “hERG current change (%, negative = inhibition) at 10uM” value was 0.109%. In the case of `CCOC(=O)CSC1=NC(=O)/C(=C\c2ccc(OC(C)=O)cc2)S1`, the “hERG current change (%, negative = inhibition) at 10uM” value is reported as 13.1%. In the case of `COc1ccc(CN2CCNC(=O)C2CC(=O)N(C)Cc2ccon2)c(F)c1` (stereo not shown), the “hERG current change (%, negative = inhibition) at 10uM” value is reported as 9.55%. `CC(=O)Nc1cccc(N(C)S(C)(=O)=O)c1` was tested, and the “hERG current change (%, negative = inhibition) at 10uM” value was 6.54%. With `Cc1ccc(C(=O)N/C(=C\c2ccc(-c3ccc([N+](=O)[O-])cc3)o2)C(=O)NC2CCS(=O)(=O)C2)cc1` (stereo not shown) the “hERG current change (%, negative = inhibition) at 10uM” value was -28.2%. In the case of `C=C(C)c1cccc(C(C)(C)NC(=O)NCCCn2ccnc2)c1`, the “hERG current change (%, negative = inhibition) at 10uM” value is reported as -2.4%. `CN1CCN(c2nc(-c3ccccc3)nc3c2oc2ccccc23)CC1` was tested, and the “hERG current change (%, negative = inhibition) at 10uM” value was -1.13%. For `c1ccc(C2CC3CC4(CCCC4)N2O3)cc1` (stereo not shown), the “hERG current change (%, negative = inhibition) at 10uM” value was -4.68%. With `CC1(c2ccccc2)CC(C)(C)N(C(=O)C2CCCO2)c2ccccc21` (stereo not shown) the “hERG current change (%, negative = inhibition) at 10uM” value was -17.7%. With `C=CCn1c(SC(C)C(=O)NC2CC2)nnc1-c1ccoc1C` (stereo not shown) the “hERG current change (%, negative = inhibition) at 10uM” value was -4.83%. With `Cc1nnc(SCC(=O)Nc2cccc(N)c2)n1-c1ccccc1` the “hERG current change (%, negative = inhibition) at 10uM” value was -10.1%. `CNC(=O)/C(C#N)=C\c1cc(C)n(-c2ccc(N3CCOCC3)cc2)c1C` was tested, and the “hERG current change (%, negative = inhibition) at 10uM” value was 9.21%. With `CN1CCN(c2ccc(CNS(=O)(=O)c3ccsc3)cc2)CC1` the “hERG current change (%, negative = inhibition) at 10uM” value was -19.4%. `Cn1cc([N+](=O)[O-])c(C(=O)NCC(=O)O)n1` was tested, and the “hERG current change (%, negative = inhibition) at 10uM” value was 24.8%. With `CNC(=O)CSc1nnnn1-c1ccc(C)cc1C` the “hERG current change (%, negative = inhibition) at 10uM” value was 7.63%. With `Cc1c(Br)c([N+](=O)[O-])nn1CC(=O)N1CCCc2ccccc21` the “hERG current change (%, negative = inhibition) at 10uM” value was 2.48%. `Cc1cc2c(NC(=O)CCCC(=O)O)cccc2nn1` was tested, and the “hERG current change (%, negative = inhibition) at 10uM” value was 13.6%. With `CC1=CCC(C(=O)O)C(C(=O)O)C1` (stereo not shown) the “hERG current change (%, negative = inhibition) at 10uM” value was 0.736%. In the case of `Cl.O=C(N/N=C1/CN2CCC1CC2)c1cccc(O)c1`, the “hERG current change (%, negative = inhibition) at 10uM” value is reported as 10.9%. With `Cc1ccsc1C(=O)OCC(=O)NCc1ccco1` the “hERG current change (%, negative = inhibition) at 10uM” value was 0.492%. With `COc1cc(C(=O)OCC(=O)NCc2ccc(F)cc2)ccc1OCC(C)C` the “hERG current change (%, negative = inhibition) at 10uM” value was 21.1%. For `COc1ccc(N2C(=O)CC(N(CCc3ccccc3)C(=O)/C=C/C(=O)O)C2=O)cc1` (stereo not shown), the “hERG current change (%, negative = inhibition) at 10uM” value was 8.06%. With `CCOC(=O)C1C(=O)N(O)CC1c1cccc(Oc2ccccc2)c1` (stereo not shown) the “hERG current change (%, negative = inhibition) at 10uM” value was 22.6%. `CCn1c(C(=O)NCCCN2CCc3ccccc3C2)cc2sccc21` was tested, and the “hERG current change (%, negative = inhibition) at 10uM” value was -64%. With `COc1ccc(NC(=O)C2CCCN(C)C2)cc1OCC(C)C` (stereo not shown) the “hERG current change (%, negative = inhibition) at 10uM” value was -1.9%. `Cc1ccc2c(c1)-c1c(cnn1CC(=O)N(CCC#N)c1ccccc1)CO2` was tested, and the “hERG current change (%, negative = inhibition) at 10uM” value was -47.9%. In the case of `CC(C)c1c(C(=O)N/N=C/C2CC=CCC2)nnn1-c1nonc1N` (stereo not shown), the “hERG current change (%, negative = inhibition) at 10uM” value is reported as 4.85%. In the case of `Cc1cccc(NC(=O)CNC(=O)C(NC(=O)Cc2ccccc2)C(C)C)c1C` (stereo not shown), the “hERG current change (%, negative = inhibition) at 10uM” value is reported as -12.4%. In the case of `Fc1cccc(CN2CCN(C(=S)NCCc3ccccc3)CC2)c1`, the “hERG current change (%, negative = inhibition) at 10uM” value is reported as 9.69%. `Cn1c(N)c(C(=O)COC(=O)c2cc(C3CC3)nc3ccccc23)c(=O)n(C)c1=O` was tested, and the “hERG current change (%, negative = inhibition) at 10uM” value was -30.6%. With `COCCN(Cc1cc2cc(C)c(C)cc2nc1Cl)C(=O)Nc1ccccc1` the “hERG current change (%, negative = inhibition) at 10uM” value was 1.39%. In the case of `C=CCNc1nnc(C)c2ccccc12`, the “hERG current change (%, negative = inhibition) at 10uM” value is reported as 1.57%. In the case of `N/C(=N\OS(=O)(=O)c1ccccc1)c1ccccn1`, the “hERG current change (%, negative = inhibition) at 10uM” value is reported as -24.1%. With `CN(Cc1ccccc1)C(=O)c1ccccc1-c1ccccc1` the “hERG current change (%, negative = inhibition) at 10uM” value was -5.82%. For `O=C1C(Oc2ccc(Cl)cc2)C(c2ccc3c(c2)OCO3)N1CC1CCCO1` (stereo not shown), the “hERG current change (%, negative = inhibition) at 10uM” value was -28.3%. With `CC(Sc1nnnn1C)C(=O)Nc1nc(-c2ccc(F)c(F)c2)cs1` (stereo not shown) the “hERG current change (%, negative = inhibition) at 10uM” value was -41.7%. For `CCOc1ccccc1NC(=O)c1ccc(C(=O)Nc2ccccc2OCC)nc1`, the “hERG current change (%, negative = inhibition) at 10uM” value was 31.4%. For `Cn1nc(C(F)(F)F)c2cc(C(=O)Nc3ccc(Cl)cc3)sc21`, the “hERG current change (%, negative = inhibition) at 10uM” value was 11.8%. With `CCOc1ccccc1-c1nnc(SCC(=O)Nc2ccccc2)o1` the “hERG current change (%, negative = inhibition) at 10uM” value was -30.2%. For `CCOc1ccc(S(=O)(=O)N(C)CC(=O)NCc2ccc3c(c2)OCO3)cc1`, the “hERG current change (%, negative = inhibition) at 10uM” value was -64.4%. For `CSc1nc(-c2ccccc2)nc(NC(=O)c2ccccc2)c1C(C)=O`, the “hERG current change (%, negative = inhibition) at 10uM” value was 29.8%. For `CCN(CC(=O)NC(c1ccccc1)c1ccccc1)Cc1nc2ccccc2c(=O)[nH]1`, the “hERG current change (%, negative = inhibition) at 10uM” value was -32.4%. `Cl.c1ccc(C2CC2)c(OCC2=NCCN2)c1` was tested, and the “hERG current change (%, negative = inhibition) at 10uM” value was 12.4%.
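Note: peak tail current of the secondary pulse compared with the same well before compound.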
